# From the BET-seq Pho4 binding data (Le et al. 2018)
# The list shows a part of the results. The energies were worked out here from pooled read counts, against the library average; single values are noisy.
# Target: T1, Pho4 (S. cerevisiae) (UniProt P07270)
# T1 sequence: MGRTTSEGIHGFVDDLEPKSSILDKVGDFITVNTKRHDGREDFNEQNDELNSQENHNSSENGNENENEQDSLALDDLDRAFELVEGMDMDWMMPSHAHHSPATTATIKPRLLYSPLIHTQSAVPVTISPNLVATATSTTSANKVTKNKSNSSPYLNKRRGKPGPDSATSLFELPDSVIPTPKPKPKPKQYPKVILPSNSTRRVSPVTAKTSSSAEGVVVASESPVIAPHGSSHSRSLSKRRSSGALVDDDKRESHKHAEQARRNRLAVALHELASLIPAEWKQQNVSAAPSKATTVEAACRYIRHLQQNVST
# Assay: relative binding free energy (BET-seq); higher = weaker binding
# Settings: reference: library average
row,Sequence,relative binding free energy [kJ/mol]
1,AGTTTCACGTGGATGC,1.59
2,ATTGGCACGTGTGGAG,-0.46
3,GCTTACACGTGGTTTA,0.544
4,TGAAACACGTGGGTTA,-0.335
5,TTGTGCACGTGGGGGC,-0.795
6,GGTAACACGTGGTCTT,-0.167
7,ACTGTCACGTGGAGTA,0.167
8,TATAGCACGTGCGTTA,0.0418
9,CATGGCACGTGGATTA,0.586
10,CGAATCACGTGTGTTG,0.0837
11,TGTGACACGTGTAGCG,0.293
12,AGTTGCACGTGAAGTC,1.46
13,AGGTTCACGTGTTGGG,1.26
14,TAGGGCACGTGAGTCG,0.628
15,AATGGCACGTGCAGTT,-0.502
16,AGTGCCACGTGGTGAG,0
17,ATAGTCACGTGGGGAG,0
18,CGTTGCACGTGTTGAA,0.209
19,TGGCTCACGTGGGTGA,0.418
20,GGGTACACGTGGCGGG,0.0418
21,ATTCGCACGTGTGTTA,-0.251
22,GTTGCCACGTGGTATT,-0.418
23,GGATTCACGTGCGGTA,0.879
24,TAATACACGTGTTGCT,0
25,AAGGGCACGTGAAGGA,0.418
26,AGGAACACGTGTAGAG,0.628

row,Sequence,relative binding free energy [kJ/mol]
1,ATTCGCACGTGATTGG,0.0418
2,GGTGTCACGTGATTTC,1.21
3,ACAGGCACGTGAGTGG,0.753
4,ATTAGCACGTGTTGCG,-0.335
5,GGGCCCACGTGGGGTG,-1.26
6,GGTGCCACGTGTTGGA,0.293
7,CCTATCACGTGGGGGG,-0.46
8,AGGAGCACGTGGGAGA,-0.586
9,ATGAACACGTGTGTTT,0
10,TTGTACACGTGGTTAT,0.502
11,TGAGGCACGTGAGGAA,0.92
12,GGGTGCACGTGGTCAT,0.167
13,GTTCGCACGTGTAGGT,0
14,AGGATCACGTGTAAGG,1.17
15,GTGTGCACGTGATGGT,0.711
16,GCGTACACGTGTTGTG,-0.167
17,AGTTACACGTGATGAG,0.628
18,ATTAACACGTGTATTT,-0.167
19,AGTAGCACGTGGGCGA,-0.502
20,ATTAGCACGTGAGGGC,0.837
21,AATGCCACGTGGGTAG,-0.46
22,TTTGTCACGTGGAGCG,0.502
23,TGTGGCACGTGAAGCG,0
24,TATGGCACGTGATCAG,-0.544
25,TTTGGCACGTGACTGT,-0.586
26,GGAGTCACGTGTCATG,0.795

row,Sequence,relative binding free energy [kJ/mol]
1,GTCAGCACGTGTCGGG,-0.0837
2,TTGAACACGTGGAATT,0.628
3,ATAGGCACGTGGATGG,-0.669
4,AATAGCACGTGAGTTG,0.795
5,TACGCCACGTGTGAGG,0.293
6,GGGGACACGTGGGGTA,-0.669
7,GGCGGCACGTGGTGGC,-0.92
8,AGGAACACGTGGTGGA,0.251
9,TTAGCCACGTGTGCGT,-0.46
10,TAGGGCACGTGGGGTT,-0.92
11,CGGTACACGTGAAGTG,0.962
12,AAGTGCACGTGGGAAT,0.0418
13,TTTAACACGTGGAGCT,0.293
14,CTGGTCACGTGTGGGG,0.335
15,TTGTTCACGTGGGACA,0.837
16,GTGGACACGTGATGCG,0.795
17,GTCTTCACGTGTGTAT,1
18,AGAAGCACGTGAGCGG,0.544
19,GGTGACACGTGTTAGG,0.251
20,AATGTCACGTGATATA,0.628
21,AGGTACACGTGCGGTT,0
22,GGTACCACGTGATTGT,0.46
23,TTATCCACGTGGGCTT,-0.293
24,TGGGTCACGTGCGGGG,0.377
25,CGGGTCACGTGGAAGA,0.209
26,ACGTACACGTGTGTTT,0.377

row,Sequence,relative binding free energy [kJ/mol]
1,TAGTGCACGTGGTCGG,-0.502
2,TGTCGCACGTGTGGCT,0
3,GTATGCACGTGGTTAA,-0.879
4,TTAATCACGTGTAGAA,0.669
5,CTCGTCACGTGATGTT,0.795
6,GCTTTCACGTGGTTTA,1.21
7,CTTTGCACGTGAAGGG,1.13
8,AGATACACGTGTAGGT,0.418
9,GTTAACACGTGGTGAT,-0.126
10,ATGGTCACGTGTCTCA,1.3
11,TGTCGCACGTGTACTG,-0.167
12,GTAGACACGTGTTATT,0.251
13,TTGTTCACGTGCGAGC,2.13
14,TGAATCACGTGTCTGG,0.837
15,TGGTACACGTGTGTTC,0.92
16,TGTGCCACGTGAGATG,1.26
17,GAGTTCACGTGGTAAT,1.34
18,ATTGTCACGTGGTTTT,0.335
19,ATCATCACGTGTTAGT,0.586
20,GATTGCACGTGTGTAA,0
21,AGGTTCACGTGGAAGA,0.837
22,TATGGCACGTGGAGTA,-0.669
23,TTTGACACGTGGTATA,-0.293
24,TTGTTCACGTGCCTGT,0.418
25,GTATTCACGTGTACTG,1.38
26,TCTGACACGTGTGGCG,0.628

row,Sequence,relative binding free energy [kJ/mol]
1,CGGGTCACGTGGATTG,0.335
2,GTGGTCACGTGGCTTT,0.46
3,GGGGTCACGTGGGTTC,0.251
4,TGAGACACGTGTGGAA,1
5,GTGCGCACGTGTAGGC,-0.418
6,AGTTGCACGTGTAGAT,1.38
7,TCGGGCACGTGAGGAT,0.795
8,GCATTCACGTGTTATT,0.879
9,AAAGTCACGTGGTTCG,0.335
10,ACGGGCACGTGAGGGC,0.293
11,GGGCTCACGTGGCTGT,1.13
12,AGTAGCACGTGACGGG,-0.0418
13,CAATTCACGTGTTTGT,1.17
14,TTCTGCACGTGGGAGC,-0.0418
15,ATTTTCACGTGTGGGA,1
16,TTTCGCACGTGCTTTG,0.0418
17,ATCCTCACGTGTTGTT,0.753
18,GTGAGCACGTGGGAGG,-0.628
19,ATACGCACGTGGTTGT,-0.92
20,TGCGGCACGTGTTTTT,0.293
21,TACAACACGTGTGGTG,0
22,GAGGTCACGTGTGCTG,0.335
23,TAGGTCACGTGTCATA,0.711
24,AGCGGCACGTGTGTGC,-0.837
25,CGCTTCACGTGTAGTG,0.502
26,GAATTCACGTGAGGTG,1.67

row,Sequence,relative binding free energy [kJ/mol]
1,CCGTTCACGTGTTTAG,1.59
2,AATATCACGTGGTAGG,0.293
3,TTCAACACGTGTGAGT,0
4,TGTATCACGTGTGATG,0.628
5,ACGGTCACGTGGGTAG,0.293
6,AGTATCACGTGTATTC,0.377
7,GGTAACACGTGTGCTT,0.837
8,GGGTGCACGTGGGTTC,-0.586
9,GGTTACACGTGGAGGC,1
10,TATGGCACGTGGGTCT,-0.879
11,CCTTGCACGTGTGGTG,0.502
12,AATTGCACGTGGGTTA,-0.795
13,GTTTACACGTGCGTGA,0.418
14,CTAGCCACGTGTGTGG,-0.586
15,TTAATCACGTGTGGAC,1.42
16,AATGACACGTGGGTTC,0.0418
17,CGGATCACGTGTTGGT,0.795
18,TTTAACACGTGGAGGC,0.962
19,GCTGACACGTGTTTGG,-0.251
20,TAGGTCACGTGGCAAG,-0.126
21,GGGCGCACGTGCGATG,-0.335
22,TCGTGCACGTGAACGG,0.879
23,GCAGTCACGTGTGTTA,1.17
24,TGTGTCACGTGGATAA,0.418
25,GTAGCCACGTGGTTGT,-0.251
26,CGCTTCACGTGTTAGG,1.51

row,Sequence,relative binding free energy [kJ/mol]
1,TAGGGCACGTGGAAAA,0.335
2,GGTAGCACGTGGGCTT,-0.837
3,TTTTGCACGTGGTCTT,-0.377
4,TTGGTCACGTGTCATT,0.335
5,TCTATCACGTGTTTAG,0.502
6,GTTATCACGTGATATG,1.34
7,TAGTTCACGTGTACGG,1.67
8,AGAGTCACGTGATGGC,1.21
9,CTTCTCACGTGTTGGT,1.09
10,TTGGTCACGTGCGCGT,-0.293
11,CATGGCACGTGGGGAT,-0.795
12,TGTGTCACGTGGCCTA,0.46
13,GTCATCACGTGCGTTT,0.544
14,AAGGTCACGTGAAGGG,1.34
15,TGCTTCACGTGAAGCT,1.67
16,TCATGCACGTGGAGGT,-0.502
17,GTTAACACGTGCAGGT,0.209
18,TTTGGCACGTGTCAGT,-0.502
19,TTAGACACGTGTGCTG,-0.126
20,TGATGCACGTGAAGTA,0.92
21,CAGTGCACGTGGTTAG,-0.377
22,GTTCGCACGTGGTAGA,-0.0837
23,TGGTTCACGTGTGTGT,1.3
24,TTGTTCACGTGTGATG,1.05
25,TTATGCACGTGGCGTC,-0.502
26,AGTTGCACGTGATGAG,0.628

row,Sequence,relative binding free energy [kJ/mol]
1,TAGTTCACGTGGGTAT,0.711
2,ATGGGCACGTGTAGTA,-0.795
3,TTGTGCACGTGCTTTA,-0.209
4,AGTGGCACGTGTTAGC,-0.669
5,CTTTGCACGTGTTGCG,-0.0418
6,AGTGCCACGTGTGAGT,-0.0418
7,GCTGGCACGTGGTTCT,-0.167
8,CTGGGCACGTGGCGAG,-1
9,GAGGTCACGTGTCAGT,0.628
10,CATGGCACGTGGAGGG,-1
11,AATTACACGTGATGGT,1.05
12,TCATGCACGTGTTGGT,-0.669
13,CTTGGCACGTGCAGTG,-0.377
14,CAGATCACGTGGGGTA,-0.209
15,GTGAACACGTGTGATG,0.0418
16,GGCGACACGTGGTATG,-0.126
17,ATTTGCACGTGGTGAC,-0.377
18,GGGTCCACGTGGGAGG,0.209
19,TTCGTCACGTGGGGTC,-0.209
20,GTGAGCACGTGCGGTT,-0.0837
21,GGCATCACGTGGTGTT,0.209
22,TTGGTCACGTGCATGA,0.251
23,TGAGGCACGTGTATGG,-0.377
24,AGGATCACGTGGCGTG,0.0418
25,ATTGTCACGTGTAACT,0.669
26,GGGGACACGTGGGTAT,-0.502

row,Sequence,relative binding free energy [kJ/mol]
1,GTGATCACGTGAGGTG,1.13
2,TATTACACGTGAGGGA,1.67
3,TCGTTCACGTGTAGTG,1.05
4,AGTGGCACGTGCCTGG,-0.92
5,TATGTCACGTGTTCAT,0.209
6,TTCATCACGTGGATGG,0.418
7,TTATACACGTGTTTTA,-0.167
8,ATGGACACGTGATATT,0.251
9,ATCTTCACGTGGGGAA,0.418
10,TCGTTCACGTGTGGCG,0.502
11,AGGATCACGTGGGATA,0.628
12,CTGTTCACGTGAGGCG,1.38
13,GGGAGCACGTGGTAGT,-0.377
14,GGTTTCACGTGTGCAG,0.628
15,GTAGTCACGTGGAGGA,0.377
16,CTTTGCACGTGTGTTG,-0.0418
17,TAGGCCACGTGTTGAA,0.251
18,GTATTCACGTGAAAGT,1.09
19,TGGTGCACGTGAGGTG,1
20,TACATCACGTGGGAGG,0.209
21,TGTTGCACGTGGGCTT,-0.167
22,TCGAACACGTGAGGGT,1.13
